Laboratory results taken from the supplement of paper PMC3334620.
Over roughly 33,000 sequences, “E-score (-0.5 to 0.5)” has its median near -0.016; the highest 2% begin near 0.32. This is one part of the list.

The sequences below were run against T1, Stp1 (UniProt B3LFK1) (assay: PBM E-score (8-mer binding enrichment) (E-score (-0.5 to 0.5)); higher = stronger / more preferred TF binding; most listed sequences are background and not binding sites). Details: protein concentration: 200 nM; construct: GST-full length.
T1 sequence: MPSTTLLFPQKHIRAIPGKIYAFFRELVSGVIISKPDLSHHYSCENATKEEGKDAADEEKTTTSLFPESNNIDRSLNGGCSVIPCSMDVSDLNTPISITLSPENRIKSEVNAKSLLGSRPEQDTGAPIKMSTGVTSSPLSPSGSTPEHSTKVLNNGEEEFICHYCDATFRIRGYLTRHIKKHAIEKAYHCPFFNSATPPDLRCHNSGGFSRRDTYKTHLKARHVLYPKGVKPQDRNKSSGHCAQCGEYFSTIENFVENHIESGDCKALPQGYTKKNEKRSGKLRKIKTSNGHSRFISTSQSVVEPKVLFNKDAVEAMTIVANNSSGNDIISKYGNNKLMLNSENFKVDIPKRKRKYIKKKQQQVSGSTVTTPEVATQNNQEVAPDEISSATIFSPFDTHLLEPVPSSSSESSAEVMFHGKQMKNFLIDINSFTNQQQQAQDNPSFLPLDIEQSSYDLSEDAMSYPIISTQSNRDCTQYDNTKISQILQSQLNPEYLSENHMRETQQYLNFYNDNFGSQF
In short: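 Full-length yeast transcription factors or their DNA-binding domains, GST-tagged and expressed with PURExpress, were applied at about 100-200 nM to universal all-10-mer Agilent arrays. These arrays had been made double-stranded by primer extension on fresh or once-stripped slides. Detection used fluorescent anti-GST, normalisation used masliner, and E-scores for ungapped eight-base words pooled with reverse complements came from the Universal PBM Analysis Suite.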

Compared with AGCAATAC, ACTTTCCG is lower in “PBM E-score” value: 0.0561 for the first, -0.0744 for the second.

Going from ATCAATTA to AATCTTAT, the “PBM E-score” value falls from 0.202 to 0.06.

Going from AACATGTA to AATGTAGT, the “PBM E-score” value falls from 0.103 to 0.0282.

Going from ACTTGAGA to TCTACAAA, the “PBM E-score” value rises from -0.0195 to 0.0554.

Going from CTAGTTGC to GCGCACAA, the “PBM E-score” value rises from -0.0422 to 0.211.

Going from AAGAATAT to GAGCGATA, the “PBM E-score” value rises from -0.125 to -0.0856.

Compared with ACAGTGCG, ACTCCTCG is higher in “PBM E-score” value: -0.022 for the first, 0.0174 for the second.

First: ATCTGATG
Second: ATACCATC
The “PBM E-score” value of the first is lower: -0.188 for the first, 0.00132 for the second.

Compared with CCTTGTTA, GCGGAAAC is lower in “PBM E-score” value: 0.17 for the first, -0.179 for the second.

Compared with ATAATCGG, ACGGTGTA is lower in “PBM E-score” value: 0.135 for the first, 0.0306 for the second.

Going from CGTCCCCC to AGTCGTTA, the “PBM E-score” value rises from -0.284 to 0.0149.

First: TCCGTACA
Second: TAACGAAA
The “PBM E-score” value of the first is lower: 0.207 for the first, 0.251 for the second.

Compared with AGGCAGTA, GGCAACAC is higher in “PBM E-score” value: 0.0386 for the first, 0.204 for the second.

Compared with GAACATAC, ACAAAAAC is lower in “PBM E-score” value: 0.102 for the first, 0.0472 for the second.

Going from GTATCTAA to CGCAGATA, the “PBM E-score” value falls from 0.15 to 0.036.

Going from ATCTCGAC to GAATGGCA, the “PBM E-score” value rises from -0.0813 to 0.312.

Compared with CAGGAGGA, GACTACAA is higher in “PBM E-score” value: -0.193 for the first, 0.0696 for the second.

Compared with ACGAGCGA, ATCTTAGA is higher in “PBM E-score” value: 0.0494 for the first, 0.194 for the second.

First: ATTATGTA
Second: GATATGAA
The “PBM E-score” value of the first is lower: 0.109 for the first, 0.149 for the second.

First: AGACGGAG
Second: ATACGCTA
The “PBM E-score” value of the first is higher: -0.0904 for the first, -0.152 for the second.

First: CCGTTACC
Second: CACAGCGA
The “PBM E-score” value of the first is lower: -0.139 for the first, 0.0696 for the second.

First: CATAATGG
Second: GTCGAATA
The “PBM E-score” value of the first is higher: -0.0722 for the first, -0.134 for the second.

First: ACTCTTCA
Second: CGTCTCTC
The “PBM E-score” value of the first is higher: 0.0095 for the first, -0.00169 for the second.

Compared with ACCGGTTG, ACGTCTGG is higher in “PBM E-score” value: -0.181 for the first, 0.0464 for the second.

Compared with GTGACGCA, AAGTATAC is higher in “PBM E-score” value: 0.0085 for the first, 0.0791 for the second.

Going from ACTTGAAC to ACTCCCCC, the “PBM E-score” value falls from 0.0394 to -0.235.

First: ACCAGTCT
Second: CACTAATG
The “PBM E-score” value of the first is lower: -0.123 for the first, 0.022 for the second.

Going from AGACAGAT to AGCAATGC, the “PBM E-score” value rises from -0.049 to 0.167.

Going from AGATGGGA to AGTCGATA, the “PBM E-score” value rises from -0.204 to -6e-05.

Going from ATAAGGCC to AGTCTGGG, the “PBM E-score” value falls from 0.0529 to -0.352.

Going from AACACGGC to AACTCTTG, the “PBM E-score” value falls from 0.449 to -0.08.

Going from GTAAAAAA to TGGCTAAA, the “PBM E-score” value falls from 0.134 to 0.0721.

First: GTGCGCCA
Second: GATCAAAA
The “PBM E-score” value of the first is lower: 0.00273 for the first, 0.0871 for the second.

Compared with CGACGTTC, AAACGAAG is higher in “PBM E-score” value: -0.214 for the first, 0.0289 for the second.

First: ATTCCTAA
Second: CTCTGCAA
The “PBM E-score” value of the first is higher: 0.0731 for the first, -0.053 for the second.

First: TGTCATAA
Second: GCGACTCC
The “PBM E-score” value of the first is higher: 0.0898 for the first, -0.294 for the second.

Going from AACGTCAC to GGATTATA, the “PBM E-score” value rises from -0.0926 to 0.0566.

Compared with GGGCGCAA, GGCTAAAC is lower in “PBM E-score” value: 0.169 for the first, -0.049 for the second.

Going from TGGTTGAA to GATAAATA, the “PBM E-score” value rises from -0.104 to 0.138.

First: CACCGAAG
Second: ATGATCCC
The “PBM E-score” value of the first is higher: 0.0689 for the first, -0.0931 for the second.

Going from AAATTCAC to AGTTCGAG, the “PBM E-score” value falls from 0.224 to -0.0423.

Going from AACTCCGC to CAGACCTA, the “PBM E-score” value rises from -0.152 to -0.103.

First: CCTTAGTA
Second: CAACGACA
The “PBM E-score” value of the first is lower: -0.0395 for the first, 0.0449 for the second.

Compared with CGCGGGTC, ACGGGGAG is lower in “PBM E-score” value: 0.214 for the first, -0.0206 for the second.

Going from CGTAACAG to ATTCAAAG, the “PBM E-score” value falls from 0.0445 to -0.0722.

First: CGGAGCAC
Second: CGCAAGGC
The “PBM E-score” value of the first is lower: 0.0182 for the first, 0.388 for the second.

First: ATCCTACA
Second: ATCATGCG
The “PBM E-score” value of the first is lower: -0.0594 for the first, 0.0666 for the second.
